Consider 153 variants from a collection of fitness landscapes (doi:10.1016/j.celrep.2020.107928).

B1: Caulobacter ParB omega fusion; a variant is named by its letters at X, in order, B8GW30 (parent)
chain: MESVVVGEPGMSEGRRGLGRGLSALLGEVDAAPAQAPGEQLGGSREAPIEILQRNPDQPRRTFREEDLEDLSNSIREKGVLQPILVRPSPDTAGEYQIVAGERAWRAAQRAGLKTVPIMVRELDDLAVLEIGIIENVQRADLNVLEEALSYKVLMEKFERTQENIAQTIGKSXSHVANXMRLLXLPDEVQSYLVSGELTAXHARAIAAAADPVALAKQIIEGGLSVRETEALARKAPNLSAGKSKGGRPPRVKDTDTQALESDLSSVLGLDVSIDHRGSTGTLTITYATLEQLDDLCNRLTRGI

The full ranking holds about 81,000 sequences; the median of “one-hybrid fitness for binding NBS DNA” is about -0.1, and the highest 2% start at about 0.36. The list shows a part of the results.

The assay covers variants of B1. Put plainly: one-hybrid fitness for binding NBS DNA (the Noc-binding site; scaled: cognate 1, non-cognate 0); higher = stronger binding. To be noted: with NBS DNA site. Summed up: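 On M9-minus-histidine containing 0.1 mM IPTG and 5 mM 3-AT, E. coli USO cells with a HIS3 reporter, site 19 bp from the promoter, grew 48 hours at 37°C to select Caulobacter ParB libraries randomised at four specificity codons. Plasmids from before and after were Illumina-sequenced, with three replicate libraries pooled and variants under 10 reads left out. Fitness is the log change in variant-to-wild-type read ratio, rescaled against cognate and non-cognate.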
As to HVQA, the “one-hybrid fitness for binding NBS DNA” value was not above 0.2.
QKMV: the “one-hybrid fitness for binding NBS DNA” value was not above 0.2.
The figure for QKDG is not above 0.2; for PAAA it is not above 0.2; for TDPM it is not above 0.2.
As for ATAW, the “one-hybrid fitness for binding NBS DNA” value was not above 0.2.
With HFHR, the “one-hybrid fitness for binding NBS DNA” value is not above 0.2.
To MNTE belongs not above 0.2.
With PVNV, the “one-hybrid fitness for binding NBS DNA” value was not above 0.2.
In the case of YLPA, the “one-hybrid fitness for binding NBS DNA” value was not above 0.2.
On to HCQW, for which the “one-hybrid fitness for binding NBS DNA” value is not above 0.2.
As to YCDC, the “one-hybrid fitness for binding NBS DNA” value is not above 0.2.
The figure for GATH is not above 0.2.
To EKLR belongs not above 0.2; to RACI, not above 0.2.
The figure for PWRR is not above 0.2; for MAAS it is not above 0.2.
Take TLVT: the “one-hybrid fitness for binding NBS DNA” value is not above 0.2.
To FRQC belongs not above 0.2; to SPTM, not above 0.2.
To RKVG belongs not above 0.2.
The figure for VTRW is not above 0.2.
Turning to AGNS, the “one-hybrid fitness for binding NBS DNA” value was not above 0.2.
The figure for LVGS is not above 0.2; for PTGY it is not above 0.2; for VSNV it is not above 0.2.
For VSTN, the “one-hybrid fitness for binding NBS DNA” value was not above 0.2.
As to VQRL, the “one-hybrid fitness for binding NBS DNA” value is not above 0.2.
To QFDN belongs not above 0.2.
The figure for IMPS is not above 0.2; for YAAT it is not above 0.2.
The figure for MSKM is not above 0.2.
Regarding PAVV, the “one-hybrid fitness for binding NBS DNA” value was not above 0.2.
On to CNCR, for which the “one-hybrid fitness for binding NBS DNA” value was not above 0.2.
The figure for PRPT is not above 0.2; for AFYL it is not above 0.2; for SPEI it is not above 0.2.
To KAYC belongs not above 0.2.
The figure for NMVF is not above 0.2; for PTGS it is not above 0.2.
In the case of VIMC, the “one-hybrid fitness for binding NBS DNA” value is not above 0.2.
Turning to NMIA, the “one-hybrid fitness for binding NBS DNA” value was not above 0.2.
The figure for QWSR is 0.229.
To NSAW belongs not above 0.2.
Turning to IEMF, the “one-hybrid fitness for binding NBS DNA” value was not above 0.2.
To TSHS belongs not above 0.2; to GSTA, not above 0.2.
For the variant SIPN, the “one-hybrid fitness for binding NBS DNA” value was not above 0.2.
Turning to YRTC, the “one-hybrid fitness for binding NBS DNA” value was not above 0.2.
To TGNH belongs not above 0.2.
To WPDT belongs not above 0.2; to SVAV, not above 0.2.
The figure for QLTI is not above 0.2.
Turning to ATTC, the “one-hybrid fitness for binding NBS DNA” value was not above 0.2.
To YLRD belongs not above 0.2.
To TWVV belongs not above 0.2; to HHPA, not above 0.2.
Consider FPNT, for which the “one-hybrid fitness for binding NBS DNA” value is not above 0.2.
Regarding NCAP, the “one-hybrid fitness for binding NBS DNA” value is not above 0.2.
Regarding NRAE, the “one-hybrid fitness for binding NBS DNA” value was not above 0.2.
To KNRG belongs not above 0.2.
To PVLI belongs not above 0.2; to GYGS, not above 0.2; to QMAE, not above 0.2.
NCAV: the “one-hybrid fitness for binding NBS DNA” value is not above 0.2.
To RFRN belongs not above 0.2.
To CQYT belongs not above 0.2; to SVFI, not above 0.2; to PRIM, not above 0.2.
The figure for NVRR is not above 0.2; for LTAK it is not above 0.2.
For MKTC, the “one-hybrid fitness for binding NBS DNA” value was not above 0.2.
The figure for VENG is not above 0.2; for PISR it is not above 0.2; for HRKN it is not above 0.2.
The figure for HGTI is not above 0.2.
The figure for WTCV is not above 0.2; for TYPL it is not above 0.2.
Take VKCR: the “one-hybrid fitness for binding NBS DNA” value was not above 0.2.
The figure for SDQG is not above 0.2; for AQSS it is not above 0.2.
Take PFYW: the “one-hybrid fitness for binding NBS DNA” value is not above 0.2.
To CRVN belongs not above 0.2; to VLNL, not above 0.2.
The figure for GFAG is not above 0.2; for GWCC it is not above 0.2; for PFFE it is not above 0.2.
The figure for SLIV is not above 0.2; for DSLG it is not above 0.2.
HNWG: the “one-hybrid fitness for binding NBS DNA” value is not above 0.2.
The figure for YSAM is not above 0.2.
To VLLG belongs not above 0.2.
To GYEG belongs not above 0.2.
As to CHQT, the “one-hybrid fitness for binding NBS DNA” value is not above 0.2.
The figure for WQVS is not above 0.2.
The figure for SQEC is not above 0.2.
The figure for RAKL is not above 0.2.
In the case of GGMR, the “one-hybrid fitness for binding NBS DNA” value was not above 0.2.
The figure for SCTS is not above 0.2; for LALR it is not above 0.2; for LRDK it is not above 0.2.
The figure for HQRT is not above 0.2.
Turning to HLVV, the “one-hybrid fitness for binding NBS DNA” value was not above 0.2.
To PTRV belongs not above 0.2; to SEDW, not above 0.2.
The figure for PPYF is not above 0.2; for ECTR it is not above 0.2; for KDSW it is not above 0.2.
The figure for AKAS is not above 0.2; for CRDC it is not above 0.2; for SLIP it is not above 0.2.
Regarding QIHF, the “one-hybrid fitness for binding NBS DNA” value was not above 0.2.
To AQPY belongs not above 0.2; to QQIF, not above 0.2.
Regarding QMSA, the “one-hybrid fitness for binding NBS DNA” value came to 0.28.
The figure for TQTR is not above 0.2; for FIRA it is not above 0.2; for PLTH it is not above 0.2.
To WPRY belongs not above 0.2.
As for AANG, the “one-hybrid fitness for binding NBS DNA” value is not above 0.2.
The figure for ARRA is not above 0.2.
The figure for RNDG is not above 0.2; for KRGK it is not above 0.2.
Consider ARHS, for which the “one-hybrid fitness for binding NBS DNA” value is not above 0.2.
As to AAPA, the “one-hybrid fitness for binding NBS DNA” value is not above 0.2.
Take CRYR: the “one-hybrid fitness for binding NBS DNA” value was not above 0.2.
SDEY: the “one-hybrid fitness for binding NBS DNA” value is not above 0.2.
With VDTH, the “one-hybrid fitness for binding NBS DNA” value is not above 0.2.
The figure for NYFC is not above 0.2.
To DYGF belongs not above 0.2.
To GICP belongs not above 0.2.
YRRM: the “one-hybrid fitness for binding NBS DNA” value was not above 0.2.
To QVAL belongs not above 0.2.
The figure for HLKD is not above 0.2.
RMRE: the “one-hybrid fitness for binding NBS DNA” value was not above 0.2.
To QQVG belongs not above 0.2; to RRWT, 0.824; to AHSL, not above 0.2.
Turning to RSLN, the “one-hybrid fitness for binding NBS DNA” value was not above 0.2.
To AKFY belongs not above 0.2.
To LVEC belongs not above 0.2.
To DAPT belongs not above 0.2; to AKMR, not above 0.2.
On to ALMV, for which the “one-hybrid fitness for binding NBS DNA” value is not above 0.2.
The figure for STKM is not above 0.2; for FMSV it is not above 0.2; for VKMT it is not above 0.2.
The figure for AAGC is not above 0.2.
The figure for IISS is not above 0.2.
With KLYS, the “one-hybrid fitness for binding NBS DNA” value was not above 0.2.
To WLEG belongs not above 0.2; to PLSD, not above 0.2; to MSSR, not above 0.2.
